Consider 73 sequences from PMC10726135.

This is one part of the list. At the low end of the ranking the order means little. Measured with an extract: partners may take part in the binding.

The experiment has as its target T1, HNF4alpha8 (COS-7 nuclear extract) (UniProt P41235-5).
T1 sequence: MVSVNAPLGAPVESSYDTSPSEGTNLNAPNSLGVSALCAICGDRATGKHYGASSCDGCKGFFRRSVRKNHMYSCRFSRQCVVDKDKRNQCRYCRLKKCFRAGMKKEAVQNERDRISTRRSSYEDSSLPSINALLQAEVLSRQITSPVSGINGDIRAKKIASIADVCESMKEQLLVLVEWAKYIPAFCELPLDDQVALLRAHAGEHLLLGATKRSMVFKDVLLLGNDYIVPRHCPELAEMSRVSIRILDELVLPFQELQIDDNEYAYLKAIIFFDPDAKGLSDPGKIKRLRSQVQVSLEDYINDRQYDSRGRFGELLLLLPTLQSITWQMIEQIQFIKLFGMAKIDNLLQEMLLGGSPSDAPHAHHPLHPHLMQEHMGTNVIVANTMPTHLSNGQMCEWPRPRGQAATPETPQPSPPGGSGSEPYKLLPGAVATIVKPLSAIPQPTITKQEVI
Put plainly: protein-binding microarray. As to conditions: COS-7 nuclear extract on double-stranded Agilent 4x180k PBM; binding buffer, salt, pH and temperature not given; high values mean tight binding; double strand, one strand shown; sequences stand for … in …GCCTAGGGAGATTAGAGTATCGGTCGA
Consider TGAAGGAACAGGTTCAGATAAGACAAGCTC, for which the binding signal (log2 normalized intensity) was -1.22. For GGAAAGCTGAGGCCCAGGAAGCTCCAGCGG the value was -1.14; for AGAATGTGGTTCTTTTCATTAAATATTTAA, 0.534; for CCTGGATCTTCCAGGCCTCCAGCTCTTTTG, -1.22. Turning to CTCAGAGGACCTGACATTCTCCACTTGGTG, the binding signal (log2 normalized intensity) was -1.34. With GCCTGGACAGATAAGAAGGGGTCAGACCAG, the binding signal (log2 normalized intensity) turned out to be 2.9. Consider GGCTCCTATTTCTGGCCCTGCAATTTGATT, for which the binding signal (log2 normalized intensity) is -0.0711. For CATCGCAGAAAGCTCTTTGCACAGTACTGA the value was -0.957. As for GGGTTCAAGCTTGATCCAGGATCCTTCTTG, the figure is -0.0828; as for GACCTTTGTTTTATTGTCATGCTGATATTC, 3.11. As for GCAGGCTCAGAACTACCAATGTTTACCAGC, the binding signal (log2 normalized intensity) was -1.29. As for TGACAAACATGTATCAGTGATAGACTAACT, the figure is -1.34.

As for AACCTTTGCCCCAGCTGTCACCCAGCCAGA, the binding signal (log2 normalized intensity) is 4.16. As for AAAAGATAAGGACACAAGTGTCAGAGCAGG, the figure is -1.29. As for TGAGTCCCCCGGCTCTACGCAAGTGGTACC, the figure is 3.08; as for CGCGTCCTCGGCTCTGCGCAGGCGCAGTCC, -1.26; as for TAGAGCTGCTTACATTTTGCTCTGTTGTGT, 1.58. As for TACTTATGTCTCCAGAAACCAACCTTTGAT, the figure is 4. For CTAAGATTTATAAAGGGCAGCAAGTATTCA, the binding signal (log2 normalized intensity) stood at 0.121.

For CTTTGAGCCAGAATCTGTCAGCTGCCTTTC, the binding signal (log2 normalized intensity) was -1.27. For GTGTTGAGAATCCCTCCCCTGTGCAAACTT the value was 3.14; for TTAAGTCAAAATATAAGGTCCAACTGACAT, 1.7; for CTTCTTTGAAAGTTTGGTGGACTTTGGCCG, 10.1. For TAAACCTGTTTGGTATCTACTCGGCAAAAC the value was 1.28; for TTGTGAGTCCAAAGGTCAGCCGGGGAAGGT, 7.55; for CCTTGGATCTCCTGCACCTGAACTTTGCTC, 6.94. For CCTTGAGTTTGAACTTTGACTTATTTAGTA the value was 5.97; for AAGTGGAATGCGCTTTCATGAGATGAAAGC, -1.46; for CAGCAGGGCACCGCCTCCACACCCCAGCCT, 2.55. On to CAAACTGCTGAAGATAAGACTTCCTCAGAT, for which the binding signal (log2 normalized intensity) is -1.29. As for AGTCCAGAGTCTGACAGAACTAAGCTGTTG, the figure is -1.34; as for GTTTGCTTTTCCTTATCATCACATGTGCAA, 1.01. GGTAATCACCCTCTCCACCCCCATGCAAGT: the binding signal (log2 normalized intensity) worked out at 5.33. As for CGGACCAGAGCCTGCCCCCGGGGCCGCCTT, the figure is 0.167; as for GCCTCCTGCCCCAGGAGCAGGATAGAAGGA, -0.726; as for TTCAGATATTCCTGGAATGACAAGAATTGG, 0.17. As for AAAGGTGAGAGAGCATCCAGATAAAGCTGA, the figure is -1.37; as for AAATCAACAAATAAATAAGAAGCCTTATCA, -1.32. TGGCCAAAGTTCAGTAAATCTTAGAGAACA: the binding signal (log2 normalized intensity) turned out to be 2.27. Consider GGCACACACGCATGGCCGGCAGCAGCCTTG, for which the binding signal (log2 normalized intensity) is -1.37. Consider GACCTTTCACCCGCGCCCAGCGGTTCCGGG, for which the binding signal (log2 normalized intensity) came to 3.84. As for AGAAAGTGGCCGGACAGGTTGGGTCTGAAG, the figure is 0.856.

Regarding GGCCTATAATTAGGTCTTTTGGTGAGTCTT, the binding signal (log2 normalized intensity) came to 0.842. As for TAGATGTCCCAGTAGATAACTTCAAGGAGC, the figure is -1.28; as for TTTGGGCTCATCCATTTTCCTCTGAAAATC, -0.92. As for CACATACAGAATCCTTTACCTCCACCTCCA, the figure is 0.113; as for TACCCAAGCCCCAAATCTAGCATCAGTGAG, 0.747; as for AGTATTTATTGAGCACTTTTGGTATGCAAG, 1.06.

Take AAGCAGAGGTGACCCTTGCACTCATACTTG: the binding signal (log2 normalized intensity) is 5.55. For TTGCCCCCGGGCACAGGGTTGAGTGGTGAC, the binding signal (log2 normalized intensity) turned out to be 2.86. For TATGCCTCTGTGACCTATAATCAGATGTAC the value was 2.33. For CAAGCTGGCTGGCTTTAGAGTTGTAGCTCT the value was -1.27. As for GAGGAAGACATCATATTTGTTATATTTGTT, the figure is 0.811; as for TCTGTAGTTTTCGTTGTCTAATCCTTCAAA, 1.64. GTGCATGGAGTGCACTGTGATCTTTAGAAA: the binding signal (log2 normalized intensity) is 2.3. As for GGGGCCAGTGTCATTTACAGAATTTCTCAG, the binding signal (log2 normalized intensity) is -1.38.

Consider CAGCAAGGCCCAGGGCAAGGACTCTAAAGG, for which the binding signal (log2 normalized intensity) was -0.908. For CGCTAGAGCAAATACAGCACTCAAATGATC the value was -0.431. As for GAGCAAACACCAAGGGCAGAGTCCTGGGGA, the binding signal (log2 normalized intensity) is -0.852.

In the case of CTCAACAAATATTAGCTGTTGGCTCCAGAG, the binding signal (log2 normalized intensity) was -1.26.

On to CAGATCCCTCTGGTGCTGATGTGTTCGCCC, for which the binding signal (log2 normalized intensity) turned out to be 1.79. For the sequence AGGGGAGATAATGCCAGAAAGGTCTAAAAG, the binding signal (log2 normalized intensity) was -0.995. As for CTGCATTCCTCAACTCTAGGAGCATGTCAA, the figure is -0.663; as for GAGGGAGAGTGGCCTTTGGAATCAAACAGA, 2.93; as for TTCATTTAGACATGTTTACTTTTGCAAGGT, 1.51.

On to GTGAGGCCAAAAGGTGCTACCACGAGAGTA, for which the binding signal (log2 normalized intensity) is -1.11. CATGCCACACATTGCTGCCATAACTCAAAA: the binding signal (log2 normalized intensity) is -1.23.

CTCCGGCCGGGAAGATGCCAGCCCCGAGAT: the binding signal (log2 normalized intensity) is 3.91. For ATGCACGGAAGCCTTCCCCGCCCGCAGCCC the value was 4.31; for AGGATCAAGGGTGGATATTGGGAGGCCCAT, -1.12. For ATTCATTCCCTAAGATTCTGGTCAAAGGTC the value was 7.83; for GCCAGCTGGCCTCCTGCGGTCCGGACTCTG, 2.43. As for AGCTGGAATGAAACGGATGCAAAGGCTGAG, the figure is -1.16.
